Reference: article PMC4336329 (PLoS ONE, 2015)
Screen size: about 310,000 compounds; about 14,000 (4.5%) showed an effect of 50% or more. The effect is printed as a negative number. The list shows a part of the results.

target: human ether-à-go-go-related gene (hERG) potassium channel (human, UniProt Q12809); assay: primary screen, population patch clamp on CHO cells stably expressing hERG
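Further: peak tail current of the secondary pulse compared with the same well before compound.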

human ether-à-go-go-related gene (hERG) potassium channel, sequence (Q12809 whole entry, looked up): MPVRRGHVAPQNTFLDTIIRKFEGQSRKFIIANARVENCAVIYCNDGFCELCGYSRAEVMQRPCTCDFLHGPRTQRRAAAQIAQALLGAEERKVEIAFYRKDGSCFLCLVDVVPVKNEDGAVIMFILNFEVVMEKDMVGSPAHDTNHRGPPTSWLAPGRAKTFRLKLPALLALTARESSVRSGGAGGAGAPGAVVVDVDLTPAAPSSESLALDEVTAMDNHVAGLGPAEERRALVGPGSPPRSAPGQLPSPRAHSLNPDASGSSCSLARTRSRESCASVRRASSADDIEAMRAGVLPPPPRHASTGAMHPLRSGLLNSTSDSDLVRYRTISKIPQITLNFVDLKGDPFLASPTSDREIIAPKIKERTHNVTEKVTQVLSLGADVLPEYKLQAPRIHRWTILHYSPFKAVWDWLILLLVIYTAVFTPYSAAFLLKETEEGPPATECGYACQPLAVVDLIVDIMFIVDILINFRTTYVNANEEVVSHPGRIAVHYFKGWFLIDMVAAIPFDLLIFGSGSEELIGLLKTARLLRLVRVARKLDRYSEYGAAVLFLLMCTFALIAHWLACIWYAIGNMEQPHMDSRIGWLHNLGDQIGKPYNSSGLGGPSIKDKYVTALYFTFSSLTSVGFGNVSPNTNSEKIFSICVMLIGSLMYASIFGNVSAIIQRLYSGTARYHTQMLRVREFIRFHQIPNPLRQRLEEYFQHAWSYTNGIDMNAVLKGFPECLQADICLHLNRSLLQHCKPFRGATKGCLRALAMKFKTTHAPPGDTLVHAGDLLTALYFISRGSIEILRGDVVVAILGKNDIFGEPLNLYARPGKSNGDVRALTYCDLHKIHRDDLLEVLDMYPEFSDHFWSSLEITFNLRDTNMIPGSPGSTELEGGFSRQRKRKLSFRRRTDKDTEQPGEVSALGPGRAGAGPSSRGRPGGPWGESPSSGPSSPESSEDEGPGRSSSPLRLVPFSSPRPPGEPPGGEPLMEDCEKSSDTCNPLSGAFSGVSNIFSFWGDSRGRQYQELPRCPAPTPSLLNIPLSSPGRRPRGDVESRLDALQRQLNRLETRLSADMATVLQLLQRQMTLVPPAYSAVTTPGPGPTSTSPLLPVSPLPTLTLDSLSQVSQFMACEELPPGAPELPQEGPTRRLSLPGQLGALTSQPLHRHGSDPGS

First: Cc1cc(=O)oc2c(C(=O)c3ccccc3)c(OCC(N)=O)ccc12
Second: Cc1ncc(CO)c2cc(C(=O)Nc3ccccc3Cl)c(=Nc3cccc(C(N)=O)c3)oc12
The “hERG current change (%, negative = inhibition) at 10uM” value of the first is lower: -3.82% for the first, 6.78% for the second.

Going from `CC(=O)Nc1c(N)c2ccccc2oc1=O` to `Cc1[nH]c2ccccc2c1C(=O)C(C)OC(=O)C1CCC1` (centres unmarked), the “hERG current change (%, negative = inhibition) at 10uM” value falls from 16.8% to -12.4%.

Going from `COc1ccc(N2CCN(CC(O)COc3cc(C)ccc3C)CC2)cc1.Cl` (centres unmarked) to `COc1ccc(NC(=O)COC(=O)C2CC(=O)N(Cc3ccc(C)cc3)C2)cc1` (centres unmarked), the “hERG current change (%, negative = inhibition) at 10uM” value rises from -33.8% to -12.7%.

First: CCOC(=O)/C=C/C(=O)Nc1ccc(-c2nnc3n2CCCCC3)cc1
Second: CCOC(=O)C1CCN(S(=O)(=O)c2ccc3[nH]c4c(c3c2)CCCC4)CC1
The “hERG current change (%, negative = inhibition) at 10uM” value of the first is lower: 8.59% for the first, 9.82% for the second.

Going from `O=C(CSc1nnc(CN2CCOCC2)n1-c1ccc(Cl)cc1)Nc1cc(Cl)ccc1O` to `COc1ccc(NC(=O)CCc2nnc3ccc(NCc4ccco4)nn23)cc1OC`, the “hERG current change (%, negative = inhibition) at 10uM” value rises from -0.469% to 9.85%.

First: Cc1csc(NC(=O)Nc2ccccc2[N+](=O)[O-])n1
Second: CNC(=O)c1nn(-c2ccccc2)ccc1=O
The “hERG current change (%, negative = inhibition) at 10uM” value of the first is higher: 13.3% for the first, -1.51% for the second.

Compared with `O=S1(=O)N[C@@H](CC2=CCCCC2)C2CCCCC2O1` (some centres unmarked), `O=C1CCC[C@H]2c3[nH]c4ccccc4c3CCN12` is higher in “hERG current change (%, negative = inhibition) at 10uM” value: -1.07% for the first, 0.816% for the second.

Going from `CCOC(=O)c1cccc(C(=O)Oc2ccccc2)n1` to `CCCn1c(CNS(=O)(=O)c2ccc(C)cc2)nc2ccccc21`, the “hERG current change (%, negative = inhibition) at 10uM” value falls from 14.6% to -31.3%.

Going from `COC(=O)c1ccc([C@H]2CC(=O)O2)cc1` to `CCCOc1ccc(/C(O)=C2/C(=O)C(=O)N(c3cc(C)on3)C2c2ccc(C(=O)OC)cc2)cc1` (centres unmarked), the “hERG current change (%, negative = inhibition) at 10uM” value rises from 1.35% to 15.1%.

First: COC(=O)c1cc(S(=O)(=O)NCc2ccc(F)cc2)cn1C
Second: COc1cc(NS(=O)(=O)c2cn(C)cn2)cc(OC)c1
The “hERG current change (%, negative = inhibition) at 10uM” value of the first is lower: -5.38% for the first, 15.6% for the second.

Going from `CN(C)CCNC(=O)Nc1ccc(F)cc1F` to `COc1ccc(N(C(C)=O)C2C=CS(=O)(=O)C2)c(OC)c1` (centres unmarked), the “hERG current change (%, negative = inhibition) at 10uM” value falls from 38.7% to 9.14%.

Compared with `Cc1nc(C(=O)NC2CC2)sc1C1(C)CC(c2ccccc2)=NO1` (centres unmarked), `S=C(NN=C1C2CC3CC(C2)CC1C3)Nc1ccccc1` is higher in “hERG current change (%, negative = inhibition) at 10uM” value: -8.63% for the first, 11.1% for the second.

Going from `COCC1CCCN(Cc2nc(-c3ccc4c(c3)OCO4)no2)C1` (centres unmarked) to `O=C(O)/C=C/C(=O)N1CCN(Cc2ccc3c(c2)OCO3)CC1`, the “hERG current change (%, negative = inhibition) at 10uM” value rises from -5.71% to 4.54%.
